The list shows a part of the results.

Here are results for 44 sequences from the supplement of paper PMC11417369.

The test system of this assay is PfHDP1 homeodomain (GST-tagged). Kind of assay: gcPBM binding intensity (ln(normalized median fluorescence intensity)); higher = stronger DNA binding. In a few lines: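 Using an Agilent 4 × 180k array, primer-extended double-stranded 36-bp intergenic genomic probes and negative controls were exposed for 1 h to GST-fused P. falciparum DNA-binding domains expressed in E. coli. Binding was carried out in 1× PBS with 1% milk, 0.2 mg/ml BSA, 0.5% salmon testes DNA and 0.03% Triton X-100, and protein was detected with Alexa488 anti-GST antibody and a 488 nm scan. Binding intensity is the highest Masliner-normalised natural-log median intensity across replicate spots of either probe orientation.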
As to “AACATCATCTCTCCACAACAACAAAAAAAAAAATAC [CACACA_negctrl_site311]”, the “gcPBM binding intensity (ln)” value worked out at 6.61.

Regarding “ATATTTTATACTTGCACACAAAATATATTAGAATGT [CACACA_site1985]”, the “gcPBM binding intensity (ln)” value came to 9.41.

With “GAAATCTAATTTATTACACACATTTGAAAAAAATTC [CACACA_site6640]”, the “gcPBM binding intensity (ln)” value was 6.14.

With “AATTTTTTGAATAATTGTACATATTTGGTTAAATAT [XGTACX_site3612]”, the “gcPBM binding intensity (ln)” value was found to be 6.21.

For the sequence “TTACTAAGAAGGATTTATTTTATAAAAATATTTATT [XGTACX_negctrl_site549]”, the “gcPBM binding intensity (ln)” value came to 5.9.

Regarding “TTATATTTTTTTGAGTGTACTTTTTGTGTAAAATTC [XGTACX_site2155]”, the “gcPBM binding intensity (ln)” value is 6.5.

Turning to “ACCCATTTTTGTTGTTCTATATATTCGTGAATCATT [CACACA_negctrl_site614]”, the “gcPBM binding intensity (ln)” value amounted to 7.23.

For “TATATGATATAATATACACACATACATATATATATA [CACACA_site8066]”, the “gcPBM binding intensity (ln)” value came to 8.9.

“GAACAACAACAAAAAAAAAAAAAAAAAAAAAAAAAA [CACACA_negctrl_site199]”: the “gcPBM binding intensity (ln)” value came to 6.14.

Take “TAAATAAATATATGTACACACACAAATATATACATA [CACACA_site8577]”: the “gcPBM binding intensity (ln)” value turned out to be 6.47.

On to “ATTTTATGAAATGTTGCACACAAAAAACAACATGTT [CACACA_site8408]”, for which the “gcPBM binding intensity (ln)” value came out at 9.69.

Regarding “ATATTTAATACAAATACACACACAAATATATACATA [CACACA_site9248]”, the “gcPBM binding intensity (ln)” value was 6.84.

“ATGGGAAAAACATTCCGTACATACATACACATATAT [XGTACX_site8263]”: the “gcPBM binding intensity (ln)” value was 6.38.

In the case of “CTGAATTTTTATAACTGTACATATTTGATATAAAAA [XGTACX_site183]”, the “gcPBM binding intensity (ln)” value is 6.07.

Take “ATATTGCTTATTTGATGTACGAATACACTAGTATTA [XGTACX_site4536]”: the “gcPBM binding intensity (ln)” value stood at 6.35.

As for “TATCTGTATATGTGTACACATATTCTTAACTCACGC [CACACA_site4255]”, the “gcPBM binding intensity (ln)” value is 7.08.

As for “ATACTAAATGAACACACACACATATAGATTTATAAC [CACACA_site6200]”, the “gcPBM binding intensity (ln)” value is 6.87.

Turning to “AAAATTATATGTAATTGTACGGAATTATATACGCAA [XGTACX_site2048]”, the “gcPBM binding intensity (ln)” value was 6.41.

In the case of “TTTTTTAAAAATATTATCATCGTAACAAGAAATCGA [CACACA_negctrl_site1111]”, the “gcPBM binding intensity (ln)” value is 6.49.

Turning to “TCCTGTGGTTATATAACACACATTATTGCTTATAAG [CACACA_site6823]”, the “gcPBM binding intensity (ln)” value worked out at 6.5.

For the sequence “AATACATACATATATACATGCATACATATAAATATA [TGCATGCA_site674]”, the “gcPBM binding intensity (ln)” value is 6.53.

For “GAACAAAAAAAAAATTGTACACAATTTTTTAAAATT [XGTACX_site4455]”, the “gcPBM binding intensity (ln)” value amounted to 6.01.

Consider “ATGATTTATTATTATACACACAAAAAAAAAAAAGGA [CACACA_site264]”, for which the “gcPBM binding intensity (ln)” value came to 6.73.

As for “AAACAAAAAAAATAAGCACACATATATATATATATA [CACACA_site8173]”, the “gcPBM binding intensity (ln)” value was 9.4.

Take “GCTTATAAGATATGCACACACAACACTTACAAAAAA [CACACA_site817]”: the “gcPBM binding intensity (ln)” value came to 9.27.

With “TATATATATATACATACATATAAAGTTACATAAACA [CACACA_negctrl_site432]”, the “gcPBM binding intensity (ln)” value stood at 8.9.

With “TAGATTTTTTTACATTGTACATATTTTTTCTTATAG [XGTACX_site293]”, the “gcPBM binding intensity (ln)” value came out at 6.63.

Consider “GAACAAACAAAGAAAGAACACACATACACAATATAC [CACACA_site8918]”, for which the “gcPBM binding intensity (ln)” value came out at 7.16.

For “ATATATGGGTAGTATACACACTGTATATTTAGGAAT [CACACA_site7357]”, the “gcPBM binding intensity (ln)” value is 6.75.

With “GTATGAAAAAAATATGCATGCTAAATAATAAATGTT [TGCATGCA_site352]”, the “gcPBM binding intensity (ln)” value turned out to be 6.52.

On to “AATATTTTAAAAAAATGTACTTTTAACCCTTATTGG [XGTACX_site3490]”, for which the “gcPBM binding intensity (ln)” value is 5.87.

Turning to “TTTTTTAAAATATAAAATATGTACAAATATGTTGAA [GTGCAC_negctrl_site379]”, the “gcPBM binding intensity (ln)” value was determined as 6.67.

As for “TATAAAATATAAATTTGTACATATAAAATATTTTAT [XGTACX_site7462]”, the “gcPBM binding intensity (ln)” value turned out to be 6.37.

Regarding “TAATAGTTATAAAATACACACCAGGCATGATAAATG [CACACA_site4335]”, the “gcPBM binding intensity (ln)” value was determined as 6.22.

For the sequence “ATATCGCACGTTTGAAGTACATAAAAACGATTAATA [XGTACX_site7684]”, the “gcPBM binding intensity (ln)” value amounted to 6.47.

Consider “CACCAATTCATATGCACACACATCTGCATATTATAG [CACACA_site6925]”, for which the “gcPBM binding intensity (ln)” value was 10.3.

In the case of “TTATATAAATATAAGGTGCTGGGGTTTATTACATAT [GTGCAC_site9909]”, the “gcPBM binding intensity (ln)” value turned out to be 6.93.

Take “CATATTATTTATATTTGTACACAGCGATATGAAATA [XGTACX_site7717]”: the “gcPBM binding intensity (ln)” value was determined as 6.69.

“CTTACATAAAATATCACACACATAAAAAAACAATAT [CACACA_site1901]”: the “gcPBM binding intensity (ln)” value was determined as 7.12.

On to “ATTTCGTAATTTATATCACACACATATATATATAAT [CACACA_site9021]”, for which the “gcPBM binding intensity (ln)” value came out at 6.84.

As for “ATCATTTTTATAAATTGTACAAATATTTTTTATACA [XGTACX_site7551]”, the “gcPBM binding intensity (ln)” value worked out at 6.74.

For “TTTTGAAGTAATACATGTACTTAAATTACTAAAAAA [XGTACX_site1955]”, the “gcPBM binding intensity (ln)” value amounted to 6.04.

As for “ACTTTGCGTTAAAAGAGTACATAATATTTTTTTTTT [XGTACX_site7533]”, the “gcPBM binding intensity (ln)” value is 6.14.

Consider “AAACTAACTCTAACATGTACATATATATATATATAT [XGTACX_site6949]”, for which the “gcPBM binding intensity (ln)” value was determined as 9.35.
